# According to the supplement of paper PMC10338343:
# ± gives the standard deviation. The full ranking holds about 5,500 sequences; the median of “pre-steady-state target cleavage rate” is about 0.1, and the highest 2% start at about 0.64. The list shows a part of the results, in another mix than the full data.
# Test system: MIWI (PIWIL1) piRISC loaded with piRNA #2 (30 nt)
# Experiment: pre-steady-state target cleavage rate (min^-1); MIWI and MILI are mouse PIWI proteins and EfPiwi is from a freshwater sponge; tags in brackets are library labels; higher = faster piRNA-guided slicing of the target
# Details: guide: piRNA #2 5'p-UUAGGUAACCCAGUAGAUCCAGAGGAAUUC; auxiliary factor: 500 nM mouse GTSF1
# Summary of the method: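 Cleave-'n-Seq: 1 nM active affinity-purified piRISC with one synthetic guide and 0.1 nM transcribed, DNA-blocked target RNA library were mixed, with or without 500 nM GTSF1 partner protein, in HEPES–potassium acetate buffer at 33 °C for 0–8 or 0–960 min. Uncleaved targets were sequenced and normalised to depth and to weakly complementary targets, three trials were pooled, and k3 was capped at 0.0001 min^-1. The pre-steady-state cleavage rate was fitted […].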
row,Sequence,pre-steady-state target cleavage rate
1,CUUUACCUCUGGAUCAACUGGGUUACCUAA,0.226 ± 0.024
2,CUUAACCUCUGGUAUCUACUGGGUUACCUAA,0.442 ± 0.055
3,CUUAAGGAGAGGGUCUACUGGGUUACCUAA,0.00949 ± 0.0022
4,CUUUUCCUCUGGAUCUACUGCGUUACCAAA,0.325 ± 0.056
5,CUUUUCCUCUGCAUCUACUGGGUUUCCUAA,0.0862 ± 0.025
6,CUUAACCUCUGCAACUACUGGGUUACCUAA,0.301 ± 0.032
7,CUUUUCCUCUGGAUCUACUGGGUAUCCUAA,0.131 ± 0.029
8,CUUAACCUGUGGAUCAACUGGGUUACCUAA,0.313 ± 0.029
9,CUUUUCCUCUGGAUCUUCUGGGUUACCUAA,0.42 ± 0.05
10,CAAUUCCUCCUGGAUCUACUGGGUUACCUAA,0.577 ± 0.059
11,CUUUUCCUCUGGAUCAACUGGGUUACCAAA,0.3 ± 0.042
12,CAAUUCCUCUGGAUCUACAGGGUUACCAAA,0.198 ± 0.03
13,CUUAAGGAGAGGAUCUACUGGGUAACCAAA,< 0.0001
14,CUUAUCCACUGGAUCUACUGGGUUAGCUAA,0.155 ± 0.04
15,CUUUUGCUCUGGAUCUACUGGGUUUCCUAA,0.112 ± 0.017
16,CUUAAGCUCUCGAUCUACUGGGUUACCUUA,0.178 ± 0.018
17,CUUAAGCUCUGGAUCUACAGGGUUAGCUAA,0.047 ± 0.0092
18,CUUAAGGAGACCUACUUCUGCGUUACCUAA,0.0056 ± 0.0032
19,GAUUUCCUCUGGAUCUUCUGGGUUACCUAA,0.154 ± 0.036
20,CUUAUCCUCUGGAUCUACUAGGUUACCUAA,0.26 ± 0.052
21,CAAUUGCUGUGGAUCUACUGGGUUACCUAA,0.294 ± 0.054
22,CUUAAGGUCAGGAUCUACUGGGUUACGUAA,0.173 ± 0.049
23,CUUAAGGACUGGAUCCACUGGGUUACCUAA,0.154 ± 0.032
24,CUUAAGCUCUGGAUCUACUGGGUUGACCUAA,0.102 ± 0.012

row,Sequence,pre-steady-state target cleavage rate
1,CUUAAGGUGAGGAUCUACUGGGUUACCUAA,0.0307 ± 0.01
2,CAAUUCCACUGGAUGUACUGGGUUACCUAA,0.53 ± 0.051
3,CUUAAGGACUGGAUCUACAGGGUUUCCUAA,0.0286 ± 0.01
4,CUUUUCCUCUGGAUCUACUGGGAUACCUAA,0.299 ± 0.033
5,CAAUGUCCUCUGGAUCUACUGGGUUACCUAA,0.16 ± 0.043
6,CUUUUCCUCUGGAUUACUGGGUUACCUAA,0.522 ± 0.037
7,CAAUUCCUCUGGAUCAACUGGGUUUCCUAA,0.268 ± 0.048
8,CUUAAGCUCUGGAUCUACUGGGUUACCGUAA,0.059 ± 0.013
9,GAAUUCCUCAGGAUCUACUGGCUUACCUAA,0.153 ± 0.015
10,CUUAACCUGUGGAUCUACUGGGUUACGUAA,0.429 ± 0.05
11,CAAUUCCUCUGGAUCUAGUGGGUUAGCUAA,0.0711 ± 0.022
12,CAGAUUCCUCUGGAUCUACUGGGUUACCUAA,0.438 ± 0.064
13,CUUUUCCUCUGGAUAUACUGGGUUACCUAA,0.628 ± 0.04
14,CUUAUCCUCUGGAUCUACUGGGUUUGGAUA [g7:g26:cont:t1A],0.00371 ± 0.0037
15,CAAUUCUCUGGAUCUACUGGGUUACCUAA,0.369 ± 0.056
16,CUUUUCCUCUGGAUCUAGUGGCUUACCUAA,0.00903 ± 0.0047
17,CUUAAGGUGUGGAUCUACUGGGUUUCCUAA,0.0165 ± 0.0049
18,CUUAAGCUCUGGUUCAACUGGGUUACCUAA,0.252 ± 0.022
19,GAAUUCCUCUGGAUCUACUGGGUUACUUAA,0.555 ± 0.05
20,CUUAACCUCUGCGAUCUACUGGGUUACCUAA,0.286 ± 0.032
21,CUUAACCUCUGGAUCUACUGGGUUUCCUAA,0.168 ± 0.028
22,CUUAACCUCAGGAUCUACUGGGUUACCAAA,0.249 ± 0.051
23,CUUAAGGAGUGGAAUCUACUGGGUUACCUAA,0.00975 ± 0.0066
24,CUUAUCCUCUGGUUCUACUGGGAUACCUAA,0.0766 ± 0.021

row,Sequence,pre-steady-state target cleavage rate
1,CUUAAGCUCUGGAUCUAAUGGGUUACCUAA,0.0291 ± 0.0077
2,CUUAAGGUCUGGAUCUACUGGGUUAGCCUAA,0.185 ± 0.025
3,CUUAUCCUCUGGAUCUACUGGGCUUACCUAA,0.0552 ± 0.014
4,CAAUUCCUCUGGAUCUACUGGGUCUACCUAA,0.501 ± 0.048
5,CAAAUGCUCUGGAUCUACUGGGUUACCUAA,0.176 ± 0.032
6,CUUAAGCUCUGGACUCUACUGGGUUACCUAA,0.0269 ± 0.0093
7,GAAUUCCACAGGAUCUACUGGGUUACCUAA,0.408 ± 0.05
8,CUUAUCCUCUGGAACUACUGGGUUACCAAA,0.143 ± 0.021
9,GAAUUGCUGUGGAUCUACUGGGUUACCUAA,0.253 ± 0.06
10,CUUUUCCUCUGGAUCUACUCGGUUUCCUAA,0.0499 ± 0.018
11,CUUAAGGAGUGGAUCUACUGGGUUACGCUAA,0.0985 ± 0.021
12,CUUAAGGUCUGGAUCAACAGGGUUACCUAA,0.0476 ± 0.0078
13,CAAUUCCUGUGGAUCUACUGGCUUACCUAA,0.0619 ± 0.017
14,CUUAAGGACUGGAUCUACUGGGUUACCAUA,0.0504 ± 0.037
15,CUUAAGCUCUGGAUCUACUGGGGUUACCUAA,0.0113 ± 0.0037
16,CUUAAGGAGUGGAUCUACUGGGUUUGCUAA,0.00454 ± 0.0037
17,CUAUUCCUCUGGAUCAUACUGGGUUACCUAA,0.016 ± 0.0067
18,CUUAAGGUCUGGAUCCUACUGGGUUACCUAA,0.041 ± 0.0085
19,GAAGUUCCUCUGGAUCUACUGGGUUACCUAA,0.103 ± 0.038
20,CUUAAGGAGUGGAUCAACUGGGUUACCUUA,0.00666 ± 0.0034
21,CAAUUCCUCUGGCUCUACUGGGUUACCUAA,0.66 ± 0.04
22,CUUAAGGACUGGAUCUACUGGGUUACUCUAA,0.206 ± 0.071
23,CAAUUCCUCUGGAUCUACUGGGUUACCUAU [g2:g29:cont:t1U],0.502 ± 0.057
24,GAAUUCCUACUGGAUCUACUGGGUUACCUAA,0.463 ± 0.05
